These are yes or no findings as the source states them, for the method shown. In cells and extracts the contact can be indirect. Some entries that bind do so weakly or less than the wild type.
Molecular target: TAR-DNA binding protein 43 (TDP43) (human (endogenous in SH-SY5Y; endogenous in human spinal cord tissue)), Q13148
Test: proximity ligation; Duolink PLA in fixed, permeabilised differentiated SH-SY5Y cells (control siRNA) treated with 10 uM MMS for 2 hr; foci per cell counted
Conditions: remark: other sources report otherwise

binding: binds
B1: X-ray repair cross-complementing protein 4 (XRCC4), Q13426 1-336 (protein)
chain: MERKISRIHLVSEPSITHFLQVSWEKTLESGFVITLTDGHSAWTGTVSESEISQEADDMAMEKGKYVGELRKALLSGAGPADVYTFNFSKESCYFFFEKNLKDVSFRLGSFNLEKVENPAEVIRELICYCLDTIAENQAKNEHLQKENERLLRDWNDVQGRFEKCVSAKEALETDLYKRFILVLNEKKTKIRSLHNKLLNAAQEREKDIKQEGETAICSEMTADRDPVYDESTDEESENQTDLSGLASAAVSKDDSIISSLDVTDIAPSRKRRQRMQRNLGTEPKMAPQENQLQEKENSRPDSSLPETSKKEHISAENMSLETLRNSSPEDLFDEI

— PMC11142363
